Measured values taken from PubChem BioAssay AID686978 (National Center for Advancing Translational Sciences (NCATS), 2013).
The whole screen tested about 420,000 compounds, of which about 64,000 (15%) were called active. This list was built around the results that the source calls inconclusive (neither active nor inactive); the mix of calls is not that of the screen. The call rests on the fitted dose curve; in most records, active means well fitted inhibition curve with a large enough effect; inconclusive means small, poorly fitted or top-dose-only effect; inactive means flat fitted curve, though single readings scatter. Potencies of inconclusive entries are left out as doubtful fits.
On the % scale 0 is the no-effect control and ±100 the full control effect; potency means the concentration at half of the fitted maximal effect; tags describe the fitted curve by direction and shape.

Experiment: qHTS for Inhibitors of human tyrosyl-DNA phosphodiesterase 1 (TDP1): qHTS in cells in absence of CPT; further: nearly all actives have a fitted effect of over 55% in size
Details: DT40 Tdp1-/- hTDP1 cells, no CPT, ATP luminescence, 48 h; activity change, negative = growth inhibition: at 46.2 µM (top of the series) unless noted
Outline: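 A cellular qHTS used chicken DT40 cells lacking endogenous Tdp1 but carrying stably transfected human TDP1. Compounds were applied without camptothecin, and cell growth kinetics were judged by ATP-dependent luminescence after ≥48 hr.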
With Cc1ccccc1-n1c(Cc2cccs2)n[nH]c1=S the Potency was “inactive”.
In the case of COc1ccc(/C=C/c2nc3ccccc3n2Cc2ccc(OC)c(OC)c2)cc1, the Potency is reported as inconclusive [inhibitor, single point].
With Cc1ccccc1N=C1NC(=O)/C(=C/c2cccn2C)S1 the Potency was active: 23.1 µM.
In the case of COc1cc(CCC(=O)Nc2ccc(S(=O)(=O)NC3=NCCCCC3)cc2)cc(OC)c1OC, the Potency is reported as inconclusive [inhibitor, single point].
With CSc1ccccc1OCc1cc(C(=O)NCCn2nc(C)cc2C)no1 the Potency was inconclusive [inhibitor, partial curve].
For Cc1ccc(N(C(=O)Cn2nnc(-c3ccc(F)cc3)n2)C(CC(C)C)C(=O)NCC2CCCO2)cc1 (stereo unspecified), the Potency was inconclusive [inhibitor, single point].
With O=C(Cn1ccccc1=O)NCc1ccc(F)cc1 the Potency was “inactive”.
In the case of CCSc1ncnc2c(C#N)c3n(c12)CCCCC3, the Potency is reported as inconclusive [inhibitor, partial curve].
With O=C(Nc1cccc(F)c1)C1CC(=O)N(c2ccc(Br)cc2)C1 (stereo unspecified) the Potency was inconclusive [inhibitor, partial curve].
For Cc1ccc(-c2ccc(C#N)c(=O)n2CC(=O)N(C)C)cc1, the Potency was inconclusive [inhibitor, partial curve].
For COc1ccc(OC)c(C2C(C(N)=O)=C(C)Nc3nc(-c4cccc(Cl)c4)nn32)c1 (stereo unspecified), the Potency was inconclusive [inhibitor, partial curve, poor fit].
In the case of Cc1cccn2c(=O)c3cc(C(=O)NCCc4ccc(S(N)(=O)=O)cc4)n(C)c3nc12, the Potency is reported as inconclusive [inhibitor, partial curve].
For Cc1cc(C)cc(N(C(=O)c2snc(C(N)=O)c2N)C(C(=O)NCC2CCCO2)c2cccs2)c1 (stereo unspecified), the Potency was active: 25.9 µM.
With CC(C)c1ccc(S(=O)(=O)N2CCN(C(=O)C3=COCCO3)CC2)cc1 the activity change, negative = growth inhibition was inconclusive: -31.8% [inhibitor].
For CC(=O)C1=CCC(c2ccco2)N(S(=O)(=O)c2ccc(C)cc2)C1 (stereo unspecified), the Potency was inconclusive [inhibitor, single point].
In the case of CSc1ccccc1-c1nnc(-c2ccc(C)cc2)o1, the Potency is reported as inconclusive [inhibitor, single point].
With Cc1ccc2nc(C(C)(C)C)c(Cc3ccsc3)n2c1 the Potency was active: 18.4 µM.
For Cc1ccc(NC(=O)c2ccc([N+](=O)[O-])o2)c(C)c1, the Potency was inconclusive [inhibitor, single point].
For Cc1cccn2c(=O)c(/C=C(\C#N)C(N)=O)c(N3CCN(c4cccc(Cl)c4)CC3)nc12, the Potency was inconclusive [inhibitor, partial curve].
With COc1cc(OC)cc(-c2nnc(SCC(=O)N3CCC(C)CC3)o2)c1 the Potency was inconclusive [inhibitor, single point].
For CC1CCCN(C(=O)c2cc(-c3cccs3)nc3ccccc23)C1 (stereo unspecified), the Potency was active: 23.1 µM.
With Cc1ccc(C(C)NC(=O)C2CCCC2)c(C)c1 (stereo unspecified) the Potency was “inactive”.
For CC(=O)c1ccc(NC(=O)Cn2c(-n3nc(C)cc3C)nc(C)cc2=O)cc1, the Potency was active: 18.4 µM.
In the case of CC(=O)c1cccc(Nc2ccc(Br)cc2)c1, the Potency is reported as inconclusive [inhibitor, single point].
With COc1ccccc1N1CCN(C(=O)c2cccc(S(=O)(=O)N3c4ccccc4CC3C)c2)CC1 (stereo unspecified) the Potency was inconclusive [inhibitor, single point].
In the case of COc1ccc(F)cc1NC(=O)C1CCN(c2nc(-c3ccc(OC)c(OC)c3)no2)CC1, the Potency is reported as active: 16.4 µM.
With CCn1cc(C(=O)NCc2ccc(Cl)cc2)c(=O)c2cc(S(=O)(=O)N(C)C)ccc21 the Potency was active: 20.6 µM.
With CCCCn1c(N)c(N(CCOC)C(=O)c2sc3ccccc3c2Cl)c(=O)[nH]c1=O the Potency was “inactive”.
With COc1ccc(NC(=S)N(CCc2nc3cc(C)c(C)cc3[nH]2)Cc2cccnc2)cc1 the Potency was “inactive”.
In the case of FC(F)(F)c1ccc(C2=Nc3ccccc3NC(c3cccs3)=N2)cc1, the Potency is reported as inconclusive [inhibitor, single point].
With CC1=C(C(N)=O)C(c2ccc(Br)cc2)n2ncnc2N1 (stereo unspecified) the Potency was “inactive”.
In the case of S=C(Cc1ccccc1)Nc1ccccc1, the Potency is reported as “inactive”.
In the case of O=C(N/N=C/c1cn(-c2ccccc2)nc1-c1cccs1)c1ccc(Cl)cc1, the Potency is reported as inconclusive [inhibitor, single point].
For O=C(NCc1ccccc1)C(=O)Nc1nc(-c2ccccc2)cs1, the Potency was inconclusive [inhibitor, single point].
With O=C(COc1ccc(Br)cc1)NC1CC1 the Potency was “inactive”.
For COc1cccc(-c2cncnc2NCCc2cnc[nH]2)c1, the Potency was inconclusive [inhibitor, full curve, poor fit].
With O=C(NCCc1ccccn1)c1ccc(COc2ccccc2)o1 the Potency was “inactive”.
With CCOC(=O)c1sc(Nc2ccccc2Cl)nc1C the Potency was inconclusive [inhibitor, partial curve].
For O=c1cc(NCc2ccccc2)c2ccccc2o1, the Potency was inconclusive [inhibitor, single point].
In the case of C[C@@]1([C@@H](NC(=O)c2cccs2)c2ccc(-c3ccccc3)cc2)C[C@H]1C1CCCCC1, the Potency is reported as inconclusive [inhibitor, single point].
In the case of CCOc1ccc(N=C2NN=C(c3cc(C)n(CC4CCCO4)c3C)CS2)cc1 (stereo unspecified), the Potency is reported as active: 23.1 µM.
With Cc1nnc(SCc2nc3sc4c(c3c(=O)[nH]2)CCCC4)n(N)c1=O the Potency was inconclusive [inhibitor, single point].
In the case of O=C(Oc1cccc(C(=S)N2CCCCC2)c1)c1ccccc1, the Potency is reported as inconclusive [inhibitor, single point].
In the case of Cc1ccc(C)c(S(=O)(=O)N2CCCC2CNC(=O)c2ccc([N+](=O)[O-])cc2)c1 (stereo unspecified), the Potency is reported as inconclusive [inhibitor, partial curve, poor fit].
For COc1ccc(N2CCN(c3oc(COc4ccc(Cl)cc4)nc3C#N)CC2)cc1, the Potency was inconclusive [inhibitor, single point].
In the case of CC1CCCCN1S(=O)(=O)Cc1ccccc1Cl (stereo unspecified), the Potency is reported as “inactive”.
For O=C(Nc1cccs1)OCCN1CCN(Cc2ccccc2)CCC1=O, the Potency was “inactive”.
For Cc1nc(Cn2c3ccc(NC(=S)NC4CCCCC4)cc3c(=O)n2C)cs1, the Potency was inconclusive [inhibitor, single point].
With COc1ccc(N(C(=O)CNC(=O)c2ccco2)C(C(=O)NC2CCCCC2)c2ccco2)cc1 (stereo unspecified) the Potency was “inactive”.
With Cc1oc2ccc(O)cc2c1C(=O)c1ccc(Cl)cc1 the Potency was inconclusive [inhibitor, partial curve, poor fit].
In the case of O=C(COc1ccc(F)cc1)Nc1cccc(OCc2cc(=O)n3ccccc3n2)c1, the Potency is reported as inconclusive [inhibitor, single point].
In the case of O=C(NCc1cccs1)C(=O)NCC1OCCCN1S(=O)(=O)c1ccccc1 (stereo unspecified), the Potency is reported as inconclusive [inhibitor, partial curve].
In the case of CC(=O)Oc1cc(OC(C)=O)c2c(=O)cc(-c3ccc(OC(C)=O)c(OC(C)=O)c3)oc2c1, the Potency is reported as active: 26.6 µM.
In the case of Cc1nc(NC(=O)CSc2nc3cccnc3n2C2CCCCC2)sc1C, the Potency is reported as inconclusive [inhibitor, single point].
With COc1ccc(NC(=O)c2cc(-c3sc(NC(=O)c4ccccc4)nc3C)n(CCO)n2)cc1 the Potency was inconclusive [inhibitor, single point].
With CC(C)Oc1ccccc1C1(c2ccccc2)NC(=O)NC1=O (stereo unspecified) the Potency was inconclusive [inhibitor, single point].
For COC(=O)CC1COc2ccccc2N1C(=O)c1cccc(Cl)c1 (stereo unspecified), the Potency was inconclusive [inhibitor, single point].
In the case of C/C(=C1\SC(N2CCOCC2)=NC1=O)c1ccccc1, the activity change, negative = growth inhibition is reported as inconclusive: -30.3% [inhibitor].
For O=C(c1ccc2c(=O)n3c(nc2c1)CCCCC3)N1CCN(c2ccc(F)cc2)CC1, the Potency was inconclusive [inhibitor, single point].
In the case of Cc1ccc(C)c(Nc2cc(C)nc(-c3ccccc3O)n2)c1, the Potency is reported as active: 5.8 µM.
With NNC(=O)c1cc2ccccc2cc1O the Potency was inconclusive [inhibitor, partial curve].
With COC(=O)C1=C(C)N(Cc2ccccc2)C(=NCCCCO)N[C@H]1c1ccccc1 the Potency was inconclusive [inhibitor, single point].
In the case of CC(=O)c1c(C)[nH]c(C(=O)N2CCN(c3ccc(F)cc3)CC2)c1C, the Potency is reported as inconclusive [inhibitor, single point].
In the case of C=C(C)Cn1c2ccc(NC(=O)NCCc3ccccc3)cc2c(=O)n1C, the Potency is reported as “inactive”.
For NS(=O)(=O)c1ccc(N2N=C(c3ccccc3)CC2c2ccc(F)cc2)cc1 (stereo unspecified), the Potency was inconclusive [inhibitor, single point].
In the case of O=C(CN1C(=O)NC2(CCCC2)C1=O)NCc1ccc(F)cc1, the Potency is reported as “inactive”.
For O=C(NC(=S)Nc1nc2ccccc2s1)c1ccco1, the Potency was inconclusive [inhibitor, single point].
In the case of COc1ccc(NC(=O)CCc2c(C)nc3c(-c4ccccc4)c(C)nn3c2C)cc1Cl, the Potency is reported as inconclusive [inhibitor, partial curve, poor fit].
With CCOC(=O)CC(NS(=O)(=O)c1ccc(NC(C)=O)cc1)c1ccc(OCC)cc1 (stereo unspecified) the Potency was “inactive”.
In the case of Cc1cccc(C)c1NC(=O)COC(=O)CCc1c[nH]c2ccccc12, the Potency is reported as “inactive”.
In the case of COc1ccccc1NC(=O)CN1CCN(CC(=O)Nc2ccc(OC)c(OC)c2)CC1, the Potency is reported as “inactive”.
